From PubChem BioAssay AID434955 (Southern Research Specialized Biocontainment Screening …, 2010)
The other results are listed elsewhere or left out. Shown are side measurements of this screen, not its main read-out; they come without a call. Most of these compounds were active or inconclusive in the main read-out, so they are no random draw.

Test: beta-lactam sensitization of Mtb H37Rv, H37Rv (AID 434955);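 further: growth measured after seven days incubation then overnight dye step; 0% = bacteria only wells and 100% = bacteria with antibiotic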
Settings: M. tuberculosis H37Rv growth with meropenem, percent inhibition; measured here: primary screen without meropenem; at 25 µM

Row | Compound | inhibition [%]
1 | Cc1ccccc1NC(=O)CN1C(=O)c2cccnc2Oc2ccc(Cl)cc21 | 0.44
2 | CC1CCC(NC(=O)CN2C(=O)c3cccnc3Oc3ccc(Cl)cc32)CC1 (configuration not stated) | 6.22
3 | Cn1c(/N=C/c2c(O)ccc3ccccc23)nc2ccccc21 | 1.52
4 | Cc1ccccc1N1CCN(C2CCCN(C(=O)c3ccccn3)C2)CC1 (configuration not stated) | 4.83
5 | Cc1cc(NC(=O)C23CCC(C)(C(=O)O2)C3(C)C)no1 (configuration not stated) | 5.45
6 | Cc1ccc(NS(=O)(=O)c2c(C(=O)N3CCOCC3)c(C)n(C)c2C)cc1 | 1.2
7 | Cc1ccc(-c2ccc(=O)n(Cc3ccc(F)cc3)n2)cc1 | 4.02
8 | COc1cc(CCC(=O)Nc2ccncc2Cl)cc(OC)c1OC | -5.29
9 | O=C(COc1ccccc1)Nc1nc2cc3c(cc2s1)OCCO3 | -0.56
10 | COc1ccc(C(=O)Nc2ccccc2C(=O)NC(C(=O)NCc2ccco2)C(C)C)cc1 (configuration not stated) | 14
11 | Cc1ccc(C(=O)OCC(=O)c2c(N)n(C)c(=O)n(C)c2=O)cc1S(=O)(=O)N1CCCCC1 | -2.8
12 | CCCCOc1ccc(/C=C/C(=O)NCCc2nc3ccccc3[nH]2)cc1 | 8.88
13 | CCCC(=O)Nc1nn(C)c2nc3ccc(C)cc3cc12 | -4.73
14 | Cc1cc(C)[n+](C2C3CC4CC(C3)CC2C4)o1 (configuration not stated) | -2
15 | O=C(NC(=S)N1CCOCC1)c1ccc([N+](=O)[O-])cc1 | 7.49
16 | COc1cc(Cl)ccc1OCc1cc(C(=O)N(C)Cc2nnc(C)o2)no1 | 9.23
17 | COc1ccc(CN2CCC(C(=O)Nc3ccc(Oc4ccccc4)nc3)CC2)cc1F | -4.32
18 | COc1ccc(NC(=O)c2sc3nc(N4CCCC4)c4c(c3c2N)CC(C)(C)OC4)cc1 | 22.1
19 | CNC(=S)N/N=C1\C(=O)c2cccc3cccc1c23 | 16.4
20 | Cc1ccc(OCC(=O)N2CCC(N3CC(C)CC(C)C3)CC2)cc1 (configuration not stated) | 1.97
21 | COc1ccc(C(=O)C[n+]2cccc3cc(OC)ccc32)cc1 | 10.7
22 | Cc1cc2oc(C(=O)N3CCN(CCc4ccccn4)CC3)c(C)c2cc1C | -2.25

Row | Compound | inhibition [%]
23 | Cc1nn(CC(=O)NNC(=O)c2cccc(Br)c2)c(C)c1[N+](=O)[O-] | 3.27
24 | COc1ccc2c(c1)C(=O)Cc1ccccc1O2 | 12.7
25 | C[N+]1(CC2COC3(CCCCC3)O2)CCCC1 (configuration not stated) | -2.84
26 | Cc1nn(CC(=O)NCCCN2CCC(Cc3ccccc3)CC2)c(=O)c2cc(-c3ccccc3)nn12 | 98.1
27 | CCc1ccccc1NC(=S)N(CCCN1CCOCC1)Cc1ccccn1 | -0.63
28 | COc1ccc(C(=O)CCC(=O)N2CCN(c3cccc(Cl)c3)CC2)cc1 | 35.3
29 | CC(C)c1ccc(C2NC(=S)NC3=C2C(=O)CCC3)cc1 (configuration not stated) | -2.31
30 | Cc1ccc(Cn2c(NC(=O)c3ccco3)nc3ccccc32)cc1 | 39.9
31 | O=C(O)CCCCCNC(=O)CCn1cnc2ccccc2c1=O | -0.25
32 | CSc1ccccc1OCc1cc(C(=O)N2CCC(c3ccncc3)CC2)no1 | 87.7
33 | COc1ccccc1CNC(=O)CN1C(=O)C(C)N(c2ccc(C)cc2)C1=O (configuration not stated) | 5.24
34 | CCOc1ccccc1NC(=O)CCc1nnc2ccc(N3CCC4(CC3)OCCO4)nn12 | -11.1
35 | Cc1sc2c(c1C)c(=O)n(-c1cccc(C(F)(F)F)c1)c(=O)n2CC(=O)NCc1ccco1 | 6.78
36 | COC(=O)COc1cc(=O)oc2ccc(NS(=O)(=O)c3ccccc3)cc12 | 11.6
37 | Oc1ccc(C2C[C@H]3CC[C@@H]2C3)cc1O (some centres not stated) | -0.45
38 | CCSc1nnc(NC(=O)C2Cc3ccccc3CN2C(=O)c2ccco2)s1 (configuration not stated) | 29.6
39 | COc1cc(C(=O)N/N=C/c2ccc(OC(=O)c3cccc(C)c3)cc2)ccc1O | 33.3
40 | COc1cccc(C2CC(c3ccc(C)cc3)Nc3nc(N)nn32)c1 (configuration not stated) | -6.59
41 | O=C(NN1C(=O)C2C(C1=O)C1C=CC2C12CC2)c1ccncc1 (configuration not stated) | 37.1
42 | O=C(CCCn1c(SCC(=O)c2ccccc2)nc2ccccc2c1=O)NCC1CCCO1 (configuration not stated) | -6.62
43 | CCOC(=O)N1CCN(C(=O)CNC(=O)c2nn(-c3ccc(OC)cc3)c(=O)c3ccccc23)CC1 | 4.49
44 | CC1(C)Cc2c(cnn2-c2ccc(F)cc2)C(NC(=O)Cn2cncn2)C1 (configuration not stated) | -12

Row | Compound | inhibition [%]
45 | Cn1nc(C(=O)N2CCOCC2)c2ccccc2c1=O | 4.19
46 | COC(=O)C1=C(C)Nc2ncnn2C1c1ccc(C)o1 (configuration not stated) | -6.76
47 | Nc1n[nH]c(N)c1N=Nc1cccc(F)c1 | -6.18
48 | COc1cc(NC(=S)NC(=O)c2ccco2)ccc1NC(=O)C(C)C | -13.6
49 | O=[N+]([O-])c1cc(C(F)(F)F)ccc1NCCc1c[nH]c2ccc(O)cc12 | -1.15
50 | CC(C)(C)c1ccc(C(=O)N/C(=C\c2cccs2)C(=O)NCc2ccco2)cc1 | 14.7
51 | CCOC(=O)c1csc(NC(=O)c2ccc3c(c2)OCCO3)n1 | 3.79
52 | CCOC(=O)C1CCN(C(=O)CN2C(=O)c3cccnc3Oc3ccccc32)CC1 | -0.87
53 | O=C(O)c1cnc(-c2ccccc2)nc1Sc1ccccc1Cl | -1.72
54 | CCc1ccc(NC(=O)C2CCCN2S(=O)(=O)c2ccc3c(c2)C(C)(C)C(=O)N3C)cc1 (configuration not stated) | -13.2
55 | COC(=O)N1C(=O)[C@](Cc2ccccc2)(c2ccccc2)N1C(=O)OC | -5.04
56 | CSc1ccc(C(=O)C2CCCN(C(=O)CCn3cncn3)C2)cc1 (configuration not stated) | -2.63
57 | O=C1CCC(C(=O)Nc2cc(C(F)(F)F)ccc2-n2cncn2)=NN1 | 2.39
58 | CCCCn1c(N)c(Sc2ccc(Cl)cc2)c(=O)[nH]c1=O | 1.42
59 | CCN1CCN(C(=O)c2ccc3c(c2)N(Cc2ccc(F)cc2)C(=O)c2ccccc2S3=O)CC1 (configuration not stated) | -8.96
60 | S=c1sc2c(N3CCOCC3)ncnc2n1-c1ccccc1 | -0.39
61 | CCOC(=O)C1CSC(CC(=O)Nc2ccc(Cl)c(Cl)c2)C(=O)N1 (configuration not stated) | 8.78
62 | Cc1nn(CC(=O)Nc2ccc(C(=O)N3CCCCC3)cc2)c(=O)c2ccccc12 | 0.06
63 | CC(C)Oc1ccc(/C=N/NC(=O)C(CSCc2ccccc2)NC(=O)c2ccc([N+](=O)[O-])cc2)cc1 (configuration not stated) | -7.35
64 | CC(=O)N1CCN(S(=O)(=O)c2cccc(C(=O)Nc3ccc(C)cn3)c2)CC1 | 0.97
65 | CCn1nc(C)cc1C(=O)NC1CC(C)(C)Cc2c1cnn2-c1cccc(F)c1 (configuration not stated) | 9.81
66 | COc1cccc(C(=O)C2CCCN(Cc3ccccn3)C2)c1 (configuration not stated) | 33.9

Row | Compound | inhibition [%]
67 | O=C(NNC(=S)NC(=O)c1sc2ccccc2c1Cl)c1ccc(Cl)cc1 | 97.3
68 | CCC1CCCCN1CCCNS(=O)(=O)c1ccc2c(c1)oc(=O)n2C (configuration not stated) | 1.26
69 | Cc1cccc(N2CC(=O)N(c3cccc(C)c3)CC2=O)c1 | -1.24
70 | Cc1ccc(OCCN(C)C(=O)C2CCC(=O)N(Cc3ccccc3F)C2)cc1 (configuration not stated) | 2.34
71 | CCc1nnc(NS(=O)(=O)c2ccc(NC(=O)c3ccc(S(=O)(=O)N(CC)CC)cc3)cc2)s1 | 2.64
72 | CSc1ccccc1OCc1cc(C(=O)N(Cc2nccn2C)C(C)C)no1 | -0.92
73 | COC(=O)c1ccc(N2CCN(C)CC2)c(NC(=O)c2ccc(-c3ccc(Cl)cc3)o2)c1 | -5.23
74 | CC12CCC(C/C1=N/NC(=O)Nc1ccccc1)C2(C)C (configuration not stated) | 1.52
75 | Cn1c(-c2ccc(F)cc2)cnc1NCc1ccc(F)cc1 | -2.93
76 | CC(C)C(NC(=O)c1cccs1)C(=O)NC1CCCCC1 (configuration not stated) | -7.91
77 | CC(=O)c1c(O)c2ccccc2n(Cc2ccccc2)c1=O | 7.99
78 | COC(=O)c1cc2sc(Cl)cc2n1CC(=O)NCCC(C)C | -2.53
79 | CCOC(=O)c1cnn(-c2ccccc2)c1NC(=O)c1ccc(C)cc1 | -4.08
80 | CCn1cc(CN2CCC(n3nccc3NC(=O)c3ccc4c(c3)OCO4)CC2)c(C)n1 | -0.58
81 | O=C(CN1C(=O)CSC1=O)N1CCCC(Nc2ccc(F)cc2)C1 (configuration not stated) | -0.68
82 | CSc1ccccc1OCc1cc(C(=O)NCCCc2ccccc2)no1 | -9.32
83 | CCC(C)N(CCNC(=O)CC1Oc2ccc(C)cc2NC1=O)C1CCCCC1 (configuration not stated) | -8.87
84 | COc1ccccc1CCNS(=O)(=O)c1cn(C)nc1C | 3.03
85 | N#Cc1nc(COc2ccc(Br)cc2)oc1NCCN1CCOCC1 | 4.53
86 | COc1ccccc1Nc1ncnc2c1c(C)c(C)n2CCCN(C)C | -2.13
87 | COc1ccc(C(CNC(=O)Cc2ccc(Cl)c(Cl)c2)N2CCCCC2)cc1 (configuration not stated) | -2.34
88 | CCCN1C(=O)S/C(=C/c2ccc(N3CCOCC3)o2)C1=O | 37.3

Row | Compound | inhibition [%]
89 | COCC1CCN(C(=O)CCc2nnc(C3(c4ccc(Cl)cc4)CCC3)o2)CC1 | 0.63
90 | CN(Cc1ccco1)c1ncnc2ccc(-c3ccc4c(c3)OCO4)cc12 | 97
91 | CCCc1cc(Nc2cccc(OCC)c2)n2ncnc2n1 | -4.24
92 | O=c1c2c3c(sc2n2cnnc2n1CCc1ccccc1)CCCC3 | -1.2
93 | CCCCC12CN3CC(C)(CN(C1)C3c1ccc([N+](=O)[O-])o1)C2=O (configuration not stated) | 41.2
94 | CC1(c2ccccc2)CC(C)(C)N2C(=O)C3(C(C#N)=C(N)Oc4cc(O)ccc43)c3cccc1c32 (configuration not stated) | 68.5
95 | C=CCNc1nnc(Cc2ccc(C(C)C)cc2)c(=O)[nH]1 | 1.48
96 | O=C(/C=C/c1cc(Br)ccc1F)OCC(=O)N1CCCC1 | 29.3
97 | COc1ccc(C(=O)Nc2nncs2)c(OC)c1 | -9.58
98 | S=c1[nH]nc(C2CCCCC2)n1/N=C/c1ccccc1 | 9.46
99 | CN(C)S(=O)(=O)c1cccc(NC(=O)c2cc(-c3cccs3)nc3ccccc23)c1 | -0.92
100 | COc1cccc(/C=N/NC(=O)CSCC(=O)Nc2ccccc2)c1O | 6.16
101 | CCC(C)[C@H](NC(=O)NC1CC1)C(=O)O (some centres not stated) | 0.01
102 | CCCc1cc(C(=O)N/N=C/c2cccn2C)cs1 | 45.7
103 | CCc1noc(C)c1C(=O)N1CCN(S(=O)(=O)c2cc(C)ccc2C)CC1 | 0.05
104 | O=C(c1ccccc1NS(=O)(=O)c1cccc([N+](=O)[O-])c1)N1CCCC1 | -3.31
105 | CCn1nc(C)c(CN2CCCCC2C(=O)Nc2ccc(Oc3cccnc3)cc2)c1C (configuration not stated) | 3.99
106 | CCCCn1cc(S(=O)(=O)c2ccccc2)c(=O)c2cc(C)ccc21 | 2.84
107 | Cc1cc(C)c2c(n1)SCC(=O)N2CC(=O)Nc1c(C)cccc1C | -5.89
